From PubChem BioAssay AID588342 (National Center for Advancing Translational Sciences (NCATS), 2011)
Among all 360,000 compounds or so, about 25,000 (6.9%) were called active. The shares of active, inactive and inconclusive entries below differ from those in the screen. Calls follow the shape of the dose curve; as a rule, active = well fitted inhibition curve with a large enough effect; inconclusive = small, poorly fitted or top-dose-only effect; inactive = flat fitted curve, though single readings scatter. Potencies of inconclusive entries are doubtful fits and often do not repeat.

The compounds below were run against Luciferin 4-monooxygenase (Photinus pyralis) (UniProt P08659) (assay: qHTS profiling assay for firefly luciferase inhibitor/activator using purifed enzyme and Km concentrations of substrates (counterscreen for miR-21 project)). Settings: purified FLuc, luminescence inhibition; series mostly up to 57.5 µM; activity change, negative = inhibition: at the top concentration.
Chain of UniProt P08659 (P08659 whole entry, looked up): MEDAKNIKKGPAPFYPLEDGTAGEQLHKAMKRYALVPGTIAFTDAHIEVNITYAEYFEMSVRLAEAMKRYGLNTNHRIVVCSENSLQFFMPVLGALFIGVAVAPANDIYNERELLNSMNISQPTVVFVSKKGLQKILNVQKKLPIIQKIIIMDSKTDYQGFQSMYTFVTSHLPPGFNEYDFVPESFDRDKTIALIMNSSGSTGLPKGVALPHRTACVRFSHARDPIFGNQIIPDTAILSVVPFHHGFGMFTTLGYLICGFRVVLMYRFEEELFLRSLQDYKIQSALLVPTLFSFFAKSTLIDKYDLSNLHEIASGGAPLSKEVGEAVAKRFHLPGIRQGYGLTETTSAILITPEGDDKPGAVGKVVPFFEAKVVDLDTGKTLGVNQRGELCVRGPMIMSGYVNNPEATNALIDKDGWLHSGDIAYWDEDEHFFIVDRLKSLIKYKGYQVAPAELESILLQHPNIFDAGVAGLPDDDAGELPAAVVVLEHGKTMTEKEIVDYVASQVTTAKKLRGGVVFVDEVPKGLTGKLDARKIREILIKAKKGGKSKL
Method in brief: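 Purified P. pyralis luciferase (10nM final) with 10uM D-luciferin and 10uM ATP (Km levels) in 50mM Tris acetate pH 7.5, 10mM Mg acetate, 0.01% Tween-20, 0.05% BSA; qHTS 6-point titration, ~60 µM downward; luminescence read.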
Also: nearly all actives have a fitted effect of over 55% in size.
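For activity change, negative = inhibition in this document: plate controls were vehicle for no effect and reference inhibitor for full effect.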
Potency is read from the fitted curve at half-maximal effect; tags tell the direction and shape of the fitted curve.

| SMILES | Potency | activity change, negative = inhibition |
| --- | --- | --- |
| Nc1ccc(-c2nc3ccccc3o2)cc1 | active: 6.75 µM |  |
| O=c1cnnc(Nc2ccc(Cl)c(C(F)(F)F)c2)[nH]1 | inconclusive: 16.9 µM [inhibitor, partial curve] |  |
| O/N=C/c1cn(-c2ccccc2)nc1-c1ccccc1 | inconclusive: 26.9 µM [inhibitor, single point] |  |
| N#Cc1cccc(NC(=O)C2CCN(c3cnccn3)CC2)c1 |  | inactive: -6.97% |
| O=C(Nc1cccnc1)OCc1ccccc1 | inconclusive: 30.1 µM [inhibitor, single point] |  |
| CCOc1ccc(NC(=S)NCc2ccc3c(c2)OCO3)cc1 | inconclusive: 23.9 µM [inhibitor, partial curve, poor fit] |  |
| O=C(O)c1cccc(NC(=O)c2cccc(S(=O)(=O)Nc3cccc([N+](=O)[O-])c3)c2)c1 | inconclusive: 26.9 µM [inhibitor, single point] |  |
| CCOc1ccc(NC(=O)CC2C(=O)N(c3ccc(C)cc3)C(=O)N2C2CCCCC2)cc1 (stereo not given) | inconclusive: 23.9 µM [inhibitor, partial curve] |  |
| CCCCc1cc(=O)oc2cc(OCC(=O)Nc3ccccn3)ccc12 | active: 21.3 µM |  |
| COc1ccc(C)cc1NC(=O)Nc1cccc(C)c1 | inconclusive: 15.1 µM [inhibitor, partial curve] |  |
| Fc1cccc(Cl)c1/C=N/Nc1c(Cl)cncc1Cl | inconclusive: 30.1 µM [inhibitor, partial curve, poor fit] |  |
| COc1ccccc1C(=O)NNC(=O)C(=O)NCc1ccccc1 | inconclusive: 21.3 µM [inhibitor, partial curve, poor fit] |  |
| O=C(c1cccs1)N1CCCC(c2nc(-c3ccc(F)cc3)no2)C1 (stereo not given) | inconclusive: 26.9 µM [inhibitor, single point] |  |
| CC(/C=N/NC(=O)c1cc(-c2ccccc2)nc2ccccc12)=C\c1ccco1 | inconclusive: 23.9 µM [inhibitor, single point] |  |
| O=C1/C(=C\Nc2ccccc2)CCN1c1ncccn1 | active: 23.9 µM |  |
| Cc1ccc(S(=O)(=O)Nc2ccncc2)c(C)c1N(C)S(=O)(=O)c1ccc(Cl)cc1 |  | inactive: 8.74% |
| CCCc1cc(=O)oc2c(CN3CCN(C)CC3)c(O)c(Cl)cc12 |  | inactive: -1.12% |
| CC(C)Oc1ccc(NC(=O)c2ccncc2)cc1 | inconclusive: 30.1 µM [inhibitor, single point] |  |
| Cc1ccc2c(c1)c(=O)c(C(=O)c1ccccc1)cn2Cc1ccccc1F |  | inactive: -7.79% |
| Cc1ccc2c(CN(C)Cc3cccc(F)c3)cc(=O)oc2c1C | inconclusive: 30.1 µM [inhibitor, single point] |  |
| Cc1c(C(=O)OC2CCCC2C)[nH]c2c1C(=O)CCC2 (stereo not given) | inconclusive: 26.9 µM [inhibitor, single point] |  |
| CC1SCC(NC(=O)c2ccc(Cl)cc2)CS1 (stereo not given) | inconclusive: 23.9 µM [inhibitor, single point] |  |
| Cc1ccc(C(=O)NC(=S)Nc2ccccc2C(F)(F)F)cc1 | inconclusive: 13.5 µM [inhibitor, partial curve] |  |
| O=C1CC(c2ccccc2)CC(O)=C1C=Nc1ccccc1 (stereo not given) | active: 16.9 µM |  |

| SMILES | Potency | activity change, negative = inhibition |
| --- | --- | --- |
| Cn1c(=NC(=O)COc2ccccc2)sc2cccc(F)c21 | inconclusive: 3.79 µM [inhibitor, partial curve, poor fit] |  |
| O=C(CSc1nnnn1C1CC2C=CC1C2)Nc1ccc(C(=O)O)cc1 (stereo not given) |  | inactive: -1.39% |
| O=C(N/N=C/c1cn(Cc2cccc(F)c2)c2ccccc12)c1cc(O)cc(O)c1 | active: 16.9 µM |  |
| CCOc1cccc(C(=O)Nc2nnc(S(=O)(=O)N(C)c3ccc(C)cc3)s2)c1 | inconclusive: 10.7 µM [inhibitor, partial curve] |  |
| O=C(CCN1C(=O)/C(=C/c2ccccc2)SC1=S)N1CCCCCC1 | inconclusive: 16.9 µM [inhibitor, partial curve, poor fit] |  |
| CCOC(=O)Cn1ccc(NC(=O)c2ccc(F)cc2)n1 | inconclusive: 37.9 µM [inhibitor, partial curve, poor fit] |  |
| C=CCn1c(CNc2ccc(C)cc2)nnc1SCC(=O)N/N=C/c1ccc(O)cc1O | inconclusive: 21.3 µM [inhibitor, partial curve, poor fit] |  |
| CC(C)CCCC(C)NC(=O)c1cc(S(=O)(=O)N2CCCCC2)ccc1N1CCOCC1 (stereo not given) |  | inactive: -1.22% |
| CC1(C)Cc2ccccc2C(NN=C2CCCC2)=N1 | inconclusive: 0.0067 µM [inhibitor, partial curve, poor fit] |  |
| Cc1cc(C(=O)N/N=C/C=C/c2ccccc2)n[nH]1 | inconclusive: 30.1 µM [inhibitor, partial curve, poor fit] |  |
| O=C(OCc1ccco1)c1ccc2c(c1)N(Cc1cccc(F)c1)C(=O)c1ccccc1S2 |  | inactive: -0.265% |
| CC(C)CCn1c(Cl)nc2c1c(=O)n(C)c(=O)n2C |  | inactive: 14.3% |
| Cc1ccc(C(C2=C(O)CC(C)(C)CC2=O)C2C(=O)CC(C)(C)CC2=O)o1 (stereo not given) | inconclusive: 23.9 µM [inhibitor, single point] |  |
| Cc1ccc(C(=O)Nc2nccc(C)n2)cc1 | inconclusive: 23.9 µM [inhibitor, partial curve, poor fit] |  |
| O=C(c1ccc(Cl)cc1)c1coc2ccc(O)cc12 | active: 3.79 µM |  |
| COc1ccc(C(=O)OCC(=O)Nc2ncc([N+](=O)[O-])s2)cc1OC |  | inactive: -19.2% |
| Brc1ccc(-c2ccc(/C=N/Nc3nc(N4CCOCC4)nc(N4CCOCC4)n3)o2)cc1 |  | inactive: -6.12% |
| Cc1nnc(N2C(=O)C(O)=C(C(=O)c3ccco3)C2c2ccc(C(C)C)cc2)s1 (stereo not given) | inconclusive: 21.3 µM [inhibitor, single point] |  |
| O=C(Nc1ncccc1O)c1cccc(S(=O)(=O)N2CCCC2)c1 | inconclusive: 37.9 µM [inhibitor, partial curve, poor fit] |  |
| CCOc1ccc(OCc2cccc(C(=O)N3CCOCC3)c2)cc1 | active: 0.301 µM |  |
| O=C1C2CC=CCC2C(=O)N1c1ccc(NCCc2ccccc2)c([N+](=O)[O-])c1 (stereo not given) | inconclusive: 10.7 µM [inhibitor, partial curve] |  |
| O=C(/C=C/c1ccco1)Oc1ccc(C(=S)N2CCOCC2)cc1 | inconclusive: 23.9 µM [inhibitor, single point] |  |
| CCc1ccc(-n2nc3cc(C)c(NC(=O)c4ccccc4C)cc3n2)cc1 | inconclusive: 10.7 µM [inhibitor, partial curve] |  |
| COc1ccc(N/C=C2\C(=O)CCc3c2oc2cc(Cl)c(O)c(Cl)c32)cc1 | inconclusive: 2.13 µM [inhibitor, partial curve, poor fit] |  |

| SMILES | Potency | activity change, negative = inhibition |
| --- | --- | --- |
| COc1ccc2oc3ccccc3c(=O)c2c1 |  | inactive: 2.51% |
| Cc1cccc(/N=C/C2=C(O)CC(C)(C)CC2=O)n1 | inconclusive: 37.9 µM [inhibitor, partial curve, poor fit] |  |
| CCOc1ccc2nc(N3C(=O)C(O)=C(C(=O)c4ccco4)C3c3ccco3)sc2c1 (stereo not given) | inconclusive: 37.9 µM [inhibitor, partial curve, poor fit] |  |
| CCOc1ccc(NC(=O)CN2C(=O)CSC(C)C2=O)cc1 (stereo not given) | active: 16.9 µM |  |
| COc1ccc(CNC(=O)CCc2c(C)nn(-c3ccc(N4CCCCC4)nn3)c2C)cc1 |  | inactive: -19.2% |
| O=C(NCc1ccccc1F)c1ccc2c(c1)OCCO2 | inconclusive: 26.9 µM [inhibitor, single point] |  |
| COc1ccc(/[N+]([O-])=C/c2ccoc2)cc1 | inconclusive: 14.1 µM [inhibitor, partial curve, poor fit] |  |
| Cc1ccc(OCCCCn2ccnc2)c([N+](=O)[O-])c1 | inconclusive: 23.9 µM [inhibitor, partial curve, poor fit] |  |
| COc1ccc(CCNC(=O)C(=O)c2cn(CC(=O)N3CCOCC3)c3ccccc23)cc1 | inconclusive: 21.3 µM [inhibitor, single point] |  |
| O=C(O)c1ccc(N/N=C/c2cccc3nccnc23)cc1 | active: 6.75 µM |  |
| Cc1ccc(C2=NN(C(=O)CCCC(=O)O)C(c3ccco3)C2)cc1 (stereo not given) | inconclusive: 21.3 µM [inhibitor, partial curve, poor fit] |  |
| Cc1cc(N(C)Cc2ccccc2)n2nc(-c3ccc(C(C)(C)C)cc3)nc2n1 | inconclusive: 19 µM [inhibitor, partial curve, poor fit] |  |
| CC1CCCCC1NC(=O)COc1ncnc2sccc12 (stereo not given) |  | inactive: -0.89% |
| CCCN(CCC)CC(O)Cn1cc(/C=C/C(=O)c2ccc(OC)cc2)c2ccccc21 (stereo not given) |  | inactive: -18.8% |
| Cc1cc(=O)oc2cc3c(cc12)OCCN3 |  | inactive: 2.93% |
| Cc1ccc(C)c(NC(=S)NNC(=O)c2csc(C(C)C)c2)c1 | inconclusive: 37.9 µM [inhibitor, partial curve, poor fit] |  |
| Cc1ccc(-c2nnc(N3CCCCC3)c3ccccc23)cc1 | inconclusive: 19 µM [inhibitor, single point] |  |
| COc1cc(/C=C2\C(=O)N(c3ccccc3)N=C2C)ccc1Oc1ccc([N+](=O)[O-])cc1[N+](=O)[O-] | inconclusive: 42.6 µM [inhibitor, partial curve, poor fit] |  |
| O=C(CSc1n[nH]c(-c2ccccc2)n1)N1CCCC1 | inconclusive: 37.9 µM [inhibitor, partial curve, poor fit] |  |
| CCC1CCc2c(sc(NC(=O)C3CC=CCC3C(=O)O)c2C#N)C1 (stereo not given) | inconclusive: 19 µM [inhibitor, partial curve, poor fit] |  |
| CCCCn1c(-c2ccco2)nc2ccccc2c1=O |  | inactive: -3.76% |
| COc1ccc(-c2cc(C(=O)N3CC(C)CC(C)C3)c3ccccc3n2)cc1 (stereo not given) | inconclusive: 3.01 µM [inhibitor, single point] |  |
